Whole data set: some 2,900 compounds, median “NF-kB SEAP reporter activity, fold change vs agonist alone” near 0.99, cut for the highest 2% near 2.6. The list shows a part of the results.
Key:
RAW-Dual [1] = assay: NF-kB SEAP reporter activity, fold change vs agonist alone; higher = enhanced NF-kB activity; conditions: library stock concentration (final ~1000-fold dilution): 10 mM
Outline: (§1)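 Reporter activity is given as fold change relative to agonist-alone wells. To measure it, 50 nL of library stock was pin-tooled onto RAW-Dual macrophages (50,000 cells/well, DMEM, 384-well plates), a PRR agonist followed 1 h later, and cells stayed at 37 °C, 5% CO2. Twenty hours on, supernatant was assayed for IRF (QuantiLuc luminescence) and NF-κB (QuantiBlue, 620 nm absorbance), and wells under 70% of agonist-control IncuCyte confluency in both mask sets were marked cytotoxic.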

RAW-Dual [2] = assay: NF-kB SEAP reporter activity, fold change vs agonist alone; cytotoxicity flag (confluency mask): not cytotoxic; higher = enhanced NF-kB activity
Outline: as §1

RAW-Dual [3] = assay: NF-kB SEAP reporter activity, fold change vs agonist alone; cytotoxicity flag (confluency mask): cytotoxic (confluency <70% of control); higher = enhanced NF-kB activity
Outline: as §1

[4] = cytotoxicity flag (confluency mask): not cytotoxic, agonist: Imiquimod (TLR7) […]
[5] = cytotoxicity flag (confluency mask): not cytotoxic, agonist: MPLA (TLR4) […]
[6] = agonist: ODN 1826 (TLR9) 0.5 ug/mL
[7] = agonist: Pam2CSK4 (TLR2/6) 0.1 ug/mL
[8] = agonist: Pam3CSK4 (TLR2/1) 0.1 ug/mL

CC(=O)OCC1=C(C(=O)O)N2C(=O)C(NC(=O)Cc3cccs3)C2SC1 (stereo not drawn)
NF-kB SEAP reporter activity (RAW-Dual [1]; [4]): 0.9
NF-kB SEAP reporter activity (RAW-Dual [1]; [5]): 0.995

CC(=O)OCC1=C(C(=O)O)N2C(=O)C(NC(=O)Cc3cccs3)C2SC1 (stereo not drawn) (library stock concentration (final ~1000-fold dilution): 10 mM)
NF-kB SEAP reporter activity (RAW-Dual [2]; agonist: LPS (TLR4) 0.1 ug/mL): 1.21
NF-kB SEAP reporter activity (RAW-Dual [2]; [6]): 0.944
NF-kB SEAP reporter activity (RAW-Dual [2]; [7]): 1.24
NF-kB SEAP reporter activity (RAW-Dual [2]; [8]): 1.02

CC(=O)C1CCC2C3CC=C4CC(O)CCC4(C)C3CCC12C (stereo not drawn)
NF-kB SEAP reporter activity (RAW-Dual [1]; [4]): 1.07
NF-kB SEAP reporter activity (RAW-Dual [1]; [5]): 1.3

CC(=O)C1CCC2C3CC=C4CC(O)CCC4(C)C3CCC12C (stereo not drawn) (library stock concentration (final ~1000-fold dilution): 10 mM)
NF-kB SEAP reporter activity (RAW-Dual [2]; agonist: LPS (TLR4) 0.1 ug/mL): 1.1
NF-kB SEAP reporter activity (RAW-Dual [2]; [6]): 0.897
NF-kB SEAP reporter activity (RAW-Dual [2]; [7]): 0.904
NF-kB SEAP reporter activity (RAW-Dual [2]; [8]): 0.972

O=c1cc(-c2ccc(O)cc2)oc2cc(O)cc(O)c12 (library stock concentration (final ~1000-fold dilution): 10 mM)
NF-kB SEAP reporter activity (RAW-Dual [2]; agonist: LPS (TLR4) 0.1 ug/mL): 1.88
NF-kB SEAP reporter activity (RAW-Dual [2]; [6]): 1.8
NF-kB SEAP reporter activity (RAW-Dual [2]; [7]): 1.88
NF-kB SEAP reporter activity (RAW-Dual [2]; [8]): 1.77

O=c1cc(-c2ccc(O)cc2)oc2cc(O)cc(O)c12
NF-kB SEAP reporter activity (RAW-Dual [1]; [4]): 1.89
NF-kB SEAP reporter activity (RAW-Dual [1]; [5]): 1.52

CC(C)n1nc(-c2cc3cc(O)ccc3[nH]2)c2c(N)ncnc21
NF-kB SEAP reporter activity (RAW-Dual [1]; [4]): 0.933
NF-kB SEAP reporter activity (RAW-Dual [1]; [5]): 0.941

CC(C)n1nc(-c2cc3cc(O)ccc3[nH]2)c2c(N)ncnc21 (library stock concentration (final ~1000-fold dilution): 10 mM)
NF-kB SEAP reporter activity (RAW-Dual [2]; agonist: LPS (TLR4) 0.1 ug/mL): 3.13
NF-kB SEAP reporter activity (RAW-Dual [2]; [6]): 0.998
NF-kB SEAP reporter activity (RAW-Dual [2]; [7]): 1.01
NF-kB SEAP reporter activity (RAW-Dual [2]; [8]): 0.904

NC(=O)N1c2ccccc2C=Cc2ccccc21 (library stock concentration (final ~1000-fold dilution): 10 mM)
NF-kB SEAP reporter activity (RAW-Dual [2]; agonist: LPS (TLR4) 0.1 ug/mL): 1.15
NF-kB SEAP reporter activity (RAW-Dual [2]; [6]): 1.06
NF-kB SEAP reporter activity (RAW-Dual [2]; [7]): 1.08
NF-kB SEAP reporter activity (RAW-Dual [2]; [8]): 1.13

NC(=O)N1c2ccccc2C=Cc2ccccc21
NF-kB SEAP reporter activity (RAW-Dual [1]; [4]): 0.909
NF-kB SEAP reporter activity (RAW-Dual [1]; [5]): 0.997

C=CC(=O)N1CCN(C(=O)CNc2cc(I)c(Cl)cc2O)CC1
NF-kB SEAP reporter activity (RAW-Dual [1]; [4]): 0.573
NF-kB SEAP reporter activity (RAW-Dual [1]; [5]): 0.616

C=CC(=O)N1CCN(C(=O)CNc2cc(I)c(Cl)cc2O)CC1 (library stock concentration (final ~1000-fold dilution): 10 mM)
NF-kB SEAP reporter activity (RAW-Dual [2]; agonist: LPS (TLR4) 0.1 ug/mL): 0.355
NF-kB SEAP reporter activity (RAW-Dual [2]; [6]): 0.326
NF-kB SEAP reporter activity (RAW-Dual [2]; [7]): 0.35
NF-kB SEAP reporter activity (RAW-Dual [2]; [8]): 0.484

Cc1ccccc1CN1C(=O)C2=C(CCN(Cc3ccccc3)C2)N2CCN=C12
NF-kB SEAP reporter activity (RAW-Dual [1]; [4]): 0.845
NF-kB SEAP reporter activity (RAW-Dual [1]; [5]): 1.17

Cc1ccccc1CN1C(=O)C2=C(CCN(Cc3ccccc3)C2)N2CCN=C12 (library stock concentration (final ~1000-fold dilution): 10 mM)
NF-kB SEAP reporter activity (RAW-Dual [2]; agonist: LPS (TLR4) 0.1 ug/mL): 1.25
NF-kB SEAP reporter activity (RAW-Dual [2]; [6]): 0.952
NF-kB SEAP reporter activity (RAW-Dual [2]; [7]): 0.787
NF-kB SEAP reporter activity (RAW-Dual [2]; [8]): 0.924

COC1/C=C/OC2(C)Oc3c(C)c(O)c4c(O)c(c(/C=N/N5CCN(C6CCCC6)CC5)c(O)c4c3C2=O)NC(=O)/C(C)=C/C=C/C(C)C(O)C(C)C(O)C(C)C(OC(C)=O)C1C (stereo not drawn)
NF-kB SEAP reporter activity (RAW-Dual [1]; [4]): 1.11
NF-kB SEAP reporter activity (RAW-Dual [1]; [5]): 0.969

COC1/C=C/OC2(C)Oc3c(C)c(O)c4c(O)c(c(/C=N/N5CCN(C6CCCC6)CC5)c(O)c4c3C2=O)NC(=O)/C(C)=C/C=C/C(C)C(O)C(C)C(O)C(C)C(OC(C)=O)C1C (stereo not drawn) (library stock concentration (final ~1000-fold dilution): 10 mM)
NF-kB SEAP reporter activity (RAW-Dual [2]; agonist: LPS (TLR4) 0.1 ug/mL): 1.56
NF-kB SEAP reporter activity (RAW-Dual [2]; [6]): 0.892
NF-kB SEAP reporter activity (RAW-Dual [2]; [7]): 0.643
NF-kB SEAP reporter activity (RAW-Dual [2]; [8]): 0.742

CCC1(O)C(=O)OCc2c1cc1n(c2=O)Cc2cc3c(CN(C)C)c(O)ccc3nc2-1 (stereo not drawn)
NF-kB SEAP reporter activity (RAW-Dual [1]; [4]): 1.46
NF-kB SEAP reporter activity (RAW-Dual [1]; [5]): 1.93

CCC1(O)C(=O)OCc2c1cc1n(c2=O)Cc2cc3c(CN(C)C)c(O)ccc3nc2-1 (stereo not drawn) (library stock concentration (final ~1000-fold dilution): 10 mM)
NF-kB SEAP reporter activity (RAW-Dual [2]; agonist: LPS (TLR4) 0.1 ug/mL): 2.01
NF-kB SEAP reporter activity (RAW-Dual [2]; [6]): 1.59
NF-kB SEAP reporter activity (RAW-Dual [2]; [7]): 0.849
NF-kB SEAP reporter activity (RAW-Dual [2]; [8]): 1.27

Nc1ncnc2c1C(=O)N(c1ccc(C3CCC(CC(=O)O)CC3)cc1)CCO2 (stereo not drawn) (library stock concentration (final ~1000-fold dilution): 10 mM)
NF-kB SEAP reporter activity (RAW-Dual [2]; agonist: LPS (TLR4) 0.1 ug/mL): 0.948
NF-kB SEAP reporter activity (RAW-Dual [2]; [6]): 1.05
NF-kB SEAP reporter activity (RAW-Dual [2]; [7]): 1.11
NF-kB SEAP reporter activity (RAW-Dual [2]; [8]): 1.32

Nc1ncnc2c1C(=O)N(c1ccc(C3CCC(CC(=O)O)CC3)cc1)CCO2 (stereo not drawn)
NF-kB SEAP reporter activity (RAW-Dual [1]; [4]): 0.994
NF-kB SEAP reporter activity (RAW-Dual [1]; [5]): 1.18

NC(CO)(CO)CO
NF-kB SEAP reporter activity (RAW-Dual [1]; [4]): 0.912
NF-kB SEAP reporter activity (RAW-Dual [1]; [5]): 1.03

NC(CO)(CO)CO (library stock concentration (final ~1000-fold dilution): 10 mM)
NF-kB SEAP reporter activity (RAW-Dual [2]; agonist: LPS (TLR4) 0.1 ug/mL): 1.11
NF-kB SEAP reporter activity (RAW-Dual [2]; [6]): 0.933
NF-kB SEAP reporter activity (RAW-Dual [2]; [7]): 1.02
NF-kB SEAP reporter activity (RAW-Dual [2]; [8]): 1.05

O=C(CCCCCCNC(=O)c1cnc(N(c2ccccc2)c2ccccc2)nc1)NO (library stock concentration (final ~1000-fold dilution): 10 mM)
NF-kB SEAP reporter activity (RAW-Dual [3]; agonist: LPS (TLR4) 0.1 ug/mL): 4.12
NF-kB SEAP reporter activity (RAW-Dual [3]; [6]): 1.3
NF-kB SEAP reporter activity (RAW-Dual [3]; [7]): 0.825
NF-kB SEAP reporter activity (RAW-Dual [3]; [8]): 1.08

O=C(CCCCCCNC(=O)c1cnc(N(c2ccccc2)c2ccccc2)nc1)NO
NF-kB SEAP reporter activity (RAW-Dual [1]; cytotoxicity flag (confluency mask): cytotoxic (confluency <70% of control), agonist: Imiquimod (TLR7) […]): 1.12
NF-kB SEAP reporter activity (RAW-Dual [1]; cytotoxicity flag (confluency mask): cytotoxic (confluency <70% of control), agonist: MPLA (TLR4) […]): 2.14

C/C1=C/CC[C@@]2(C)O[C@@H]2[C@H]2OC(=O)[C@H](CN(C)C)[C@@H]2CC1 (library stock concentration (final ~1000-fold dilution): 10 mM)
NF-kB SEAP reporter activity (RAW-Dual [2]; agonist: LPS (TLR4) 0.1 ug/mL): 0.302
NF-kB SEAP reporter activity (RAW-Dual [2]; [6]): 0.185
NF-kB SEAP reporter activity (RAW-Dual [2]; [7]): 0.197
NF-kB SEAP reporter activity (RAW-Dual [2]; [8]): 0.151

C/C1=C/CC[C@@]2(C)O[C@@H]2[C@H]2OC(=O)[C@H](CN(C)C)[C@@H]2CC1
NF-kB SEAP reporter activity (RAW-Dual [1]; [4]): 0.137
NF-kB SEAP reporter activity (RAW-Dual [1]; [5]): 0.246

Source: the supplement of paper PMC10037445
